Paper PMC4336329 (PLoS ONE, 2015)
Among all 310,000 compounds or so, about 14,000 (4.5%) showed an effect of 50% or more. Effects have a minus sign here. The list shows a part of the results.

Each compound was assayed against human ether-à-go-go-related gene (hERG) potassium channel (human, UniProt Q12809) (assay: primary screen, population patch clamp on CHO cells stably expressing hERG).
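Also: peak tail current of the secondary pulse compared with the same well before compound.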

Sequence of human ether-à-go-go-related gene (hERG) potassium channel (Q12809 whole entry, looked up): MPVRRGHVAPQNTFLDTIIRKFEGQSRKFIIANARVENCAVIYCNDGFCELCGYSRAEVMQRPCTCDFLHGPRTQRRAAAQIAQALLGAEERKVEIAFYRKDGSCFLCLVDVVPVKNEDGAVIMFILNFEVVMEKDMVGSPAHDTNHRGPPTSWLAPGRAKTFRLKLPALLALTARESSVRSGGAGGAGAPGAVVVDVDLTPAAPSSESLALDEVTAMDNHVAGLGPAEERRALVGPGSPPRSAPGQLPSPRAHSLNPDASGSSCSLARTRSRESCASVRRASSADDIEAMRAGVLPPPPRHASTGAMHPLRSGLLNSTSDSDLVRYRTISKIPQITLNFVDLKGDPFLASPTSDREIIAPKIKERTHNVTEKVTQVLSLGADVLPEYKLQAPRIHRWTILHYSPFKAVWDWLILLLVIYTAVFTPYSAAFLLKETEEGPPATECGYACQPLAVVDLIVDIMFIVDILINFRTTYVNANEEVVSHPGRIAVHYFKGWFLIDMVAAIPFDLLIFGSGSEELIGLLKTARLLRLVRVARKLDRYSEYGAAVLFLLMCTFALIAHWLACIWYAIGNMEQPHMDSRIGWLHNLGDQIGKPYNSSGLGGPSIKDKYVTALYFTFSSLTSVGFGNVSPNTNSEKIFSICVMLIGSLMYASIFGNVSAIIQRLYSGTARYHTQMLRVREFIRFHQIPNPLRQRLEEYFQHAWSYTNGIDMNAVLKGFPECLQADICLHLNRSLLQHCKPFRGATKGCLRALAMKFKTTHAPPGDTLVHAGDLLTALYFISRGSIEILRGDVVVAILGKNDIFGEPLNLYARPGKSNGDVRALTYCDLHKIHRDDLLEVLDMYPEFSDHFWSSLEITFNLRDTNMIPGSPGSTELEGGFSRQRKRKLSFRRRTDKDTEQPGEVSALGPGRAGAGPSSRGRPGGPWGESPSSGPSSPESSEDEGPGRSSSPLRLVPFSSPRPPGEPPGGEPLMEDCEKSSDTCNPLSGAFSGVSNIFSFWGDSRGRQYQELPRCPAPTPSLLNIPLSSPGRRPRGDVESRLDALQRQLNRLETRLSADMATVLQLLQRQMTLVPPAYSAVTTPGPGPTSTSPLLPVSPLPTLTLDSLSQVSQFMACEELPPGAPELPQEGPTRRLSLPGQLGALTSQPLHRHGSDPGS

Compound	hERG current change (%, negative = inhibition) at 10uM
CCOC(=O)N1CCN(C(=O)c2nc3ccccc3s2)CC1	-0.815%
Cc1ccc(C(c2nnnn2Cc2ccccc2)N2CC=C(c3ccc(F)cc3)CC2)cc1 (centres unmarked)	11.5%
O=[N+]([O-])c1nn(-c2ccc3c(c2)OCCO3)n(O)c1=NC1CCN(Cc2ccccc2)CC1	-17.8%
COc1ccc(/C=C/CN2CCN(Cc3ccc(F)cc3)C(CCO)C2)cc1 (centres unmarked)	-58.5%
Cc1nn(C)cc1CNC(=O)Nc1ccc(Br)cc1Cl	-22.2%
Cc1ccc(/C=N/NC(=O)CNC(=O)Cc2ccccc2)o1	4.78%
CCCS(=O)(=O)N1CCCC(C(=O)Oc2ccc(Cl)cc2)C1 (centres unmarked)	14.5%
Br.CCOC(=O)c1ccc(N=c2scc(C)n2CC)cc1	14.6%
CCN(CC)C(=O)CSc1nc2c(sc(=S)n2-c2ccc(C)cc2C)c(=O)[nH]1	18.1%
COc1ccc(OC)c(-c2c[n+](=O)c3c(n2[O-])CCCC3)c1	16.5%
CNC(=O)c1cc(S(=O)(=O)Nc2ccc3c(c2)OCO3)ccc1C	4.42%
COc1cc(C2C(C(=O)OC(C)C)=C(C)Nc3[nH]c(=O)[nH]c(=O)c32)ccc1O (centres unmarked)	2.88%
CCCn1c(SCC(=O)Nc2ccc(OC)cc2)nnc1-c1ccncc1	-0.0475%
COc1ccc(C(=O)CCC(=O)NCCc2ccccc2F)cc1	-1.94%
CN(C(=S)NC(=O)c1ccc(Cl)cc1)C1CCCCC1	18.4%
O=c1[nH]cnc2c1sc1nc3c(c(-c4ccc(Cl)cc4)c12)CCC3	-0.313%
O=C(CN1C(=O)NC(c2ccccc2)(c2ccccc2)C1=O)N1CCOCC1	0.969%
Cc1ccc(NC(=S)N/N=C2/CCCCc3ccccc32)cc1	-3.99%
CCN(CC)CCOC(c1ccccc1)c1ccc(C)cc1.Cl (centres unmarked)	-73%

Compound	hERG current change (%, negative = inhibition) at 10uM
CC1SC(C)C(=O)N(CC(=O)NCc2ccc(F)cc2)C1=O (centres unmarked)	-2.24%
COc1cc(O)c(C(CCN2CCCCC2)c2ccc(N(C)C)cc2)c(OC)c1 (centres unmarked)	-8.43%
Nc1n[nH]c(-c2ccccc2[N+](=O)[O-])n1	20.2%
CC1=C(C(=O)OC2CCCC2)C(c2coc3ccccc3c2=O)C2=C(CC(C)(C)CC2=O)N1 (centres unmarked)	-38.6%
COCCCNC(CC(=O)Nc1ccc(OC)cc1OC)C(=O)O (centres unmarked)	5.01%
CC1CCN(c2ccc(S(=O)(=O)Nc3cc(C(=O)O)cc(C(=O)O)c3)cc2[N+](=O)[O-])CC1	-0.817%
COc1ccc(N2CCN(C(=O)COC(=O)c3ccco3)CC2)cc1	2.51%
O=C(NCCc1ccccc1)C(NS(=O)(=O)c1cccc2nsnc12)c1ccccc1 (centres unmarked)	-25.4%
Cn1ncc(Br)c1NC(=O)Nc1ccccc1	17.5%
CN1CCN(NC(=S)Nc2ccc(OC(F)F)cc2)CC1	-33.9%
O=C(Nc1ncn[nH]1)c1cc(S(=O)(=O)Nc2cccc(C(F)(F)F)c2)ccc1Cl	17.8%
C=CCNC(=O)CC1C(=O)NCCN1Cc1c(F)cccc1Cl (centres unmarked)	14.2%
Cc1ccc(NC(=O)c2c(C(F)(F)F)nn(C)c2SCc2cccc(C(F)(F)F)c2)cc1C	-2.8%
COc1ccc(-n2c(/C=C(\C)O)nc(=O)c3c(C)cc(C)nc32)cc1	2.38%
OC(COc1ccc2ccccc2c1)CN1CCCC1 (centres unmarked)	-19.1%
CCCNC(=O)COC(=O)c1ccc(-c2ccccc2)cc1	9.43%
Cc1c2ccccc2nc2ccccc12	-1.84%
COc1cccc(NC(=O)CN(C)C(=O)c2cc(S(=O)(=O)N3CCCCC3)ccc2Cl)c1	-34.7%
COc1cccc(C(=O)NCc2nnc(SCC(=O)Nc3nccs3)n2-c2ccccc2)c1	-4.43%

Compound	hERG current change (%, negative = inhibition) at 10uM
Br.COc1ccc(-c2csc(Nc3ccc(S(N)(=O)=O)cc3)n2)cc1OC	25.5%
O=C(CSc1n[nH]c(=O)n1Cc1ccco1)c1ccc2c(c1)OCCO2	15%
Nc1cccc(Nc2nc(OC(C(F)(F)F)C(F)(F)F)nc(OC(C(F)(F)F)C(F)(F)F)n2)c1	-3.49%
CC(=O)CSc1nc2ccccc2s1	7.11%
CSc1nc2nc3c(cc2c(=O)n1-c1ccccc1C)CCCC3	-15.6%
CCCCS(=O)(=O)Nc1ccc(N2CCOCC2)c(S(=O)(=O)N2CCOCC2)c1	-16.4%
Cn1nnc2cc(C(=O)NCc3ccco3)ccc21	1.15%
COc1ccc(C(=O)SC2=NCCS2)cc1OC	-11.7%
COc1ccc(CC(NC(C)=O)C(=O)NC2CCN(c3nc(C)cc(C)c3C#N)CC2)cc1OC (centres unmarked)	9.91%
CCn1c(CNC(=O)COc2ccc(C(C)C)cc2)nnc1SCC(=O)NC1CCCCC1C (centres unmarked)	-16.8%
N#C/C(=C1\CCCN1)c1nc2ccccc2c(=O)[nH]1	17.8%
Nc1cc(=O)[nH]c(SCC(=O)Nc2ccc(Oc3ccccc3)cc2)n1	5.51%
OCCC1CN(CCCn2cccn2)CCN1Cc1ccccc1 (centres unmarked)	-8.62%
O=C(NNS(=O)(=O)c1cc(Cl)cc(Cl)c1)c1sccc1-n1cccc1	0.806%
Cc1c(C(=O)Nc2nc3ccccc3[nH]2)cccc1[N+](=O)[O-]	-5.7%
CCN(CC)c1nc2ccccc2n(Cc2cccc(OC)c2)c1=O	1.94%
C/C(CCN1CCc2nc(-c3ccccc3)c(-c3ccccc3)cc2C1)=N\O[C@@H](C)c1cn([C@H](CO)Cc2ccccc2)nn1	-18.3%
CC1CCN(c2cc(N3CCC(C)CC3)c([N+](=O)[O-])cc2/C=C(\C#N)c2nn(-c3ccccc3)c(N)c2C#N)CC1	-10.2%
